{"source": "paper PMC3268818", "about": "(Journal of Molecular Biology, 2011)", "proteins": {"B1": {"name": "BclXL_dTM, human BclXL in which the TM domain is deleted ([…]) (domain or fragment)", "chain": "not shown"}}, "target": "the molecule itself", "test": "SEC-MALS"}
{"protein": "B1", "values": [{"measurement": "stoichiometry N", "result": 2}]}
